Laboratory results reported in PubChem BioAssay AID485313 (National Center for Advancing Translational Sciences (NCATS), 2010).
In all, about 320,000 compounds went through this assay and about 7,600 (2.4%) were called active. The inconclusive results got no clear call from the source; some entries with a clear call stand among them for comparison. Calls follow the shape of the dose curve; as a rule, active = well fitted activation curve with a large enough effect; inconclusive = small, poorly fitted or top-dose-only effect; inactive = no such curve, though single readings can be large or run the other way. Potencies beside an inconclusive call are fits to weak or partial responses and may not hold up.

Test: qHTS Assay for NPC1 Promoter Activators; also: nearly all actives have a fitted effect of over 60% in size;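 as to activation: reporter is driven by a mutant NPC1 promoter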
Settings: Huh7 NPC1 promoter luciferase reporter, 24 h; series mostly up to 9.22 µM
Summary of the method: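 Huh7 reporter cells (NPC1 promoter driving luciferase) are dosed with compound for 24 h at 37 °C, 5% CO2; luciferase detection reagent is then added and luminescence measured after 10 min at ambient temperature.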
Potency is read from the fitted curve at half-maximal effect; tags tell the direction and shape of the fitted curve.

Potency, active:
O=C(Nc1nc(-c2nc3ccccc3s2)cs1)C1CC1 1.41 µM
COc1ccc(-c2ccc(C(=O)C3CC3)cc2)cc1 2.82 µM
Clc1ccc(/C=N/NC2=Nc3cccc4cccc2c34)cc1 0.631 µM
Cc1ccc(-c2nnc(-c3ccccc3Br)o2)cc1 3.98 µM
N#Cc1c(NC(=O)c2ccc([N+](=O)[O-])o2)sc2c1CCC2 1.58 µM
O=c1c2c(nc3cc(-c4cccc(Cl)c4)[nH]n13)CCC2 2 µM
COc1cc(OC)cc(C(=O)NCCOc2ccccc2)c1 1.58 µM
S=C(c1ccc(-c2ccc(Br)cc2)o1)N1CCOCC1 3.55 µM
CC(=O)Nc1cccc(-c2nc3ccc(NC(C)=O)cc3s2)c1 3.16 µM
CC(=O)Nc1cccc(OCC(=O)Nc2ccccc2)c1 3.55 µM
C/C(=N\NC(=O)c1ccccc1)c1ccccc1F 1.41 µM
COC(=O)c1sccc1-c1ccc(C(=O)Nc2ccccc2)o1 3.55 µM
COc1cccc(NC(=O)N2CCc3ccccc3C2)c1 3.98 µM

Potency, inconclusive:
C/C(=N\N1C(=O)c2ccccc2NC1c1ccccc1)c1ccccc1O (configuration not stated) 0.891 µM [activator, single point]
CCNC(=O)c1sc2cc(C)ccc2c1Cl 3.16 µM [activator, single point]
Cc1ccc(OCc2nc(-c3ccccn3)n[nH]2)cc1 3.98 µM [activator, partial curve]
Cc1ccc(N=C2NC(=O)/C(=C\c3ccco3)S2)cc1 3.16 µM [activator, single point]
c1cc2cc(-c3c(-c4ccc5c(c4)OCO5)noc3-c3ccsc3)ccc2[nH]1 3.55 µM [activator, single point]
CCn1c2ccccc2c2nc3ccccc3nc21 1.26 µM [activator, single point]
Cc1ccc(-c2ccc(/C=N/NC(N)=S)o2)cc1 0.631 µM [activator, partial curve]
COc1ccc(NC(=O)CCCC2CCCCC2)c(OC)c1 3.16 µM [activator, partial curve]
O=c1c(Cl)c(N/N=C/c2ccc(Br)cc2)cnn1-c1ccccc1 1.78 µM [activator, partial curve]
COc1cccc(C(=O)Nc2ccccc2)c1 3.55 µM [activator, single point]
Cn1c(SCc2c(F)cccc2Cl)nnc1-c1cccs1 2.51 µM [activator, partial curve]
O=C(Nc1ccc(O)cc1)c1ccc(C(=O)c2ccccc2)o1 3.98 µM [activator, single point]
CCOc1ccc2nc(NC(=O)Cn3[nH]c(=O)c4ccccc4c3=O)sc2c1 4.47 µM [activator, single point]
COC(=O)c1ccccc1NC(=O)c1cc2ccccc2o1 2.24 µM [activator, partial curve]
O=C(CSc1nnc(NC(=O)c2ccc(F)cc2F)s1)NC1CC1 3.55 µM [activator, single point]
Cc1nn(-c2ccccc2)c(C)c1/C=N/NC(=O)c1cccs1 3.55 µM [activator, single point]
N#C/C(=C(/O)c1cccs1)c1nc2ccccc2[nH]1 3.16 µM [activator, partial curve]
Cc1ccc(/C=C/C(=O)c2ccc(N3CCOCC3)cc2)s1 3.55 µM [activator, single point]
FC(F)(F)c1cnc(-c2cnc(-c3ccccn3)nc2)c(Cl)c1 1 µM [activator, partial curve]
COc1ccc(C(=O)CSc2cc(C)[nH]c(=O)n2)cc1 2.24 µM [activator, partial curve]
COc1ccc(S(=O)(=O)N2CCC(C(=O)NCc3cccnc3)CC2)cc1C 1.12 µM [activator, single point]
COc1ccc(C(=O)/C=C/Nc2ccc([N+](=O)[O-])cc2)cc1 5.62 µM [activator, single point]
CCn1c2ccccc2c2cc(NC(=O)c3cccc(OC)c3)ccc21 4.47 µM [activator, single point]
COC(=O)c1ccccc1NCC(=O)c1ccc(OC)cc1 2.82 µM [activator, partial curve]

Potency, inactive:
O=C(N/N=C/c1ccc(O)cc1)c1ccncc1
Cc1ccccc1OCC(=O)Nc1ccc(C)c(S(=O)(=O)N2CCCCCC2)c1
Cc1c(OCC(=O)N[C@H](C(=O)O)c2ccccc2)ccc2c3c(c(=O)oc12)CCCC3
Cc1[nH]c2ccccc2c1C(=O)COC(=O)C1CC(=O)N(Cc2ccccc2)C1 (configuration not stated)
COc1ccc(C(=O)Nc2ccc(-c3n[nH]c(=S)o3)cc2)cc1OC
Cc1ccc(-n2nc3c(=O)n(C(C)C(=O)NC4CC4)nc(C)c3c2C)cc1 (configuration not stated)
COc1cc(/C=N/NC(=O)CCc2ccccc2)ccc1O
CCNC(=O)CC1SC(=Nc2cccc3ccccc23)N(C)C1=O (configuration not stated)
COc1ccc(-c2cc(=O)oc3cc(OCc4nn[nH]n4)ccc23)cc1
COC(=O)c1cccc(CN2C(=O)SC(Nc3ccc(C)cc3)C2=O)c1 (configuration not stated)
CCCCOC(=O)C(C#N)c1nc2ccccc2nc1N1CCOCC1 (configuration not stated)
COC(=O)c1[nH]c2ccc(F)cc2c1NC(=O)CCN1CCN(Cc2ccc3c(c2)OCO3)CC1
O=c1oc2ccccc2n1CCCOc1ccccc1
COc1cccc(C(=O)Nc2ccc(N3CCN(S(C)(=O)=O)CC3)cc2)c1
Cc1ccc(NC(=O)C2CCCN2c2nn3c(=O)cc(C)nc3s2)cc1 (configuration not stated)
